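Values below derive from 48-hour exposures of cells grown in 96-well plates, with endpoints linearly interpolated between the two concentrations bracketing the appropriate inhibition level. GI50 = concentration required for 50% inhibition of growth.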 Active and inactive are the calls of the source. Cut-off read from the data, not from the text of the source: active = GI50 up to about 1.1 µM and inactive = higher. A value given as a limit tells only on which side of the number the result lay.

In general, GI50 refers to the concentration giving 50% growth inhibition.

This test relates to NCI-H322M. The test is described as follows: DTP human tumour cell line panel, 48 h.
`Cc1ccc(S(=O)(=O)Nc2nnc(S(N)(=O)=O)s2)cc1`: the GI50 was inactive: > 100 µM. Under `COC1=C(N2CC2)C(=O)c2nc3n(c2C1=O)CCC3` stands inactive: 1.86 µM; under `Cc1cccc2c(O)c3c(O)cc(O)cc3nc12`, inactive: > 10 µM. Under `CN(C)CCNc1ccccn1` stands inactive: > 100 µM; under `O=[N+]([O-])/C=C/c1c(Cl)cccc1Cl`, inactive: 16.9 µM; under `COc1cc(C2c3cc4c(cc3OC(N3CCOCC3)C2C)OCO4)cc(OC)c1OC(C)=O` (centres undefined), inactive: 39.7 µM. For `CC(C)CC(NC(=O)c1cccc(O)c1O)C(=O)NCc1cc(CNC(=O)C(CC(C)C)NC(=O)c2cccc(O)c2O)cc(CNC(=O)C(CC(C)C)NC(=O)c2cccc(O)c2O)c1` (centres undefined), the GI50 is inactive: 11.2 µM. Under `C=C(C(=O)OC)[C@H]1CC/C(C)=C/CC/C(C)=C/CC[C@@]2(C)O[C@@H]2C1` stands inactive: 24.5 µM; under `O=C(O)CCC1CCc2cccc(O)c2C1=O` (centres undefined), inactive: > 100 µM. Under `COc1cc2c(cc1OC)C(Cl)C(c1cc(OC)c(OC)c(OC)c1)=C2Cl` (centres undefined) stands inactive: 16.3 µM; under `COc1cc(C[C@@]2(C)[C@@H]3CCC[C@H](CO)[C@@]3(C)CC[C@@H]2C)c(Cl)c(OC)c1`, inactive: 17.2 µM.

In the case of `COc1ccc2c(c1)-c1[nH]c3ccccc3c1CC2`, the GI50 is inactive: 18.5 µM.

`COc1ccc(S(=O)(=O)Nc2ccc(-c3csc(N4C(=O)/C(=C/c5ccccc5[N+](=O)[O-])N=C4c4ccccc4)n3)cc2)cc1Cl`: the GI50 was inactive: > 100 µM.

For `Cc1nc(N)c(N2CCN(CN)CC2)c(O)n1`, the GI50 was inactive: > 100 µM. For `COC(=O)[C@@H]1OC(C)(c2ccccc2)O[C@H]1C(=O)OC`, the GI50 is inactive: > 100 µM. As for `Nc1nc(Cl)cc(NCC2(CO)CCCC2)n1`, the GI50 was inactive: > 100 µM. Under `CCOC(=O)c1sc(=S)n(-c2ccc(Cl)cc2)c1-n1cc(-c2ccccc2)c(C#N)c1N` stands inactive: 45.7 µM; under `CCOC(=O)c1csc(NC(=O)CCN(CC)CC)n1`, inactive: > 100 µM; under `NC(=O)C1(c2ccccc2)Nc2ccccc2S1` (centres undefined), inactive: > 100 µM. For `CCC/C(Cl)=N/OC(=O)Nc1cc(C(F)(F)F)ccc1OC`, the GI50 was inactive: 17.5 µM.

Regarding `O=P(O)(O)C=C=C1CCCCC1`, the GI50 is inactive: > 100 µM. Under `CC1=NN(C(=O)CC(=O)N(C(=O)c2ccccc2)c2ccc(Cl)cc2)C(=O)C1/N=N/c1ccc([N+](=O)[O-])cc1` (centres undefined) stands inactive: > 10 µM; under `Cc1cn(C2CC(OC(=O)c3ccc(Cl)cc3)C(COC(=O)c3ccc(Cl)cc3)O2)c(=O)[nH]c1=O` (centres undefined), inactive: > 100 µM; under `Cc1ccc(N(C=O)c2c([N+](=O)[O-])cc([N+](=O)[O-])c3c2=[N+]([O-])CN=3)cc1`, inactive: > 100 µM. On to `Cc1cc(O)nc(NN2C(Cl)C(=O)C2c2ccc(O)cc2)n1` (centres undefined), for which the GI50 is inactive: 11.1 µM. With `O=C(CC(Cl)(Cl)C(Cl)(Cl)Cl)c1ccccc1` the figure was inactive: 13 µM; with `C[C@@]1(OC(=O)c2cc([N+](=O)[O-])cc([N+](=O)[O-])c2)C[C@@H]2CCCC[C@@H]21`, inactive: > 100 µM.

In the case of `[O-][S+]1SC(=S)C2C=CC=CC21` (centres undefined), the GI50 was inactive: > 100 µM.

Consider `COCc1nc(N)nc(N2N=C(C)CC2(C)C)n1`, for which the GI50 was inactive: > 100 µM.

Turning to `COc1cc(-c2cc(=O)c3ccccc3o2)ccc1N`, the GI50 was inactive: 90.6 µM.

In the case of `Nc1nc(Cl)cc(NCC2(CCO)CCC2)n1`, the GI50 is inactive: > 100 µM.

As to `CSC(=NC1=NC(C(F)(F)F)(C(F)(F)F)N=C(c2ccccc2)O1)SC`, the GI50 is inactive: 26.9 µM. Under `Cc1cn2cc(-c3ccncc3)nc2s1` stands inactive: > 100 µM. Under `CCOC(=O)c1ccc(/N=C\c2ccc(N(CCC#N)CCC#N)cc2)cc1` stands inactive: > 100 µM. With `COc1ccc(C)cc1Nc1nnc(-c2ccc(N)cc2)s1`, the GI50 was inactive: 84.3 µM. Under `CC1=C(C(=O)Nc2cc(F)c(F)cc2F)C(c2cccc([N+](=O)[O-])c2)C(C(=O)Nc2ccccc2C(F)(F)F)=C(C)N1` (centres undefined) stands inactive: 24.8 µM; under `O=C(CN1c2ccccc2Sc2ccccc21)N1CCNCC1`, inactive: > 100 µM; under `C=C(CCC/C(C)=C/C=C/[C@@H](C)CCCc1ccoc1)C[C@@H]1OC(=O)[C@H](C)[C@@H]1O`, inactive: 6.64 µM. Under `O=C1CCSSCCC(=O)Nc2ccccc2N1` stands inactive: > 100 µM; under `CC(C)(C)[Si](C)(C)OCCCCC1CC2(S(=O)(=O)C3=CC=C=C=C3)ON1CC2S(=O)(=O)c1ccccc1` (centres undefined), inactive: > 100 µM; under `CC(=O)Oc1c(C)c2c(c3ccccc13)OC(C)(C)C2`, inactive: 15.5 µM. Under `Cc1nc(C(N)=S)sc1C(/C=C/c1ccc(Cl)c(Cl)c1)=N/NC(C)(C)C` stands inactive: > 100 µM; under `CC1OC(n2cc(F)c(=O)[nH]c2=O)C=CC1=O` (centres undefined), inactive: 63.7 µM; under `CCCCNC1=C(C(=O)OCC)C(=O)CO1`, inactive: > 100 µM.

On to `NC(=O)CSc1nc2ccccc2c(=O)n1N`, for which the GI50 was inactive: > 100 µM.

As to `O/N=C1/C(=C/c2ccc3c(c2)OCO3)CCCC1C(NO)c1ccc2c(c1)OCO2` (centres undefined), the GI50 was inactive: 24.5 µM. Under `CC(C)=CC(=O)CC(=O)C(=O)Nc1ccc(Cl)c(Cl)c1` stands inactive: > 100 µM; under `O=C1/C(=N\O)c2ccccc2S1(=O)=O`, inactive: 72.8 µM; under `CC(C)CC(NC(=O)C(C)(CI)Cc1ccccc1)C(=O)Nc1ccccc1` (centres undefined), inactive: > 100 µM.

Consider `CS(=O)(=O)C[S+]([O-])C[S+]([O-])C[S+]([O-])CC(NC(=O)CCC(N)C(=O)O)C(=O)O` (centres undefined), for which the GI50 is inactive: > 100 µM.

As for `O=C(Nc1ccc2[nH]c(C(=O)N3CC(CCl)c4c3cc([N+](=O)[O-])c3ccccc43)cc2c1)c1cc2ccccc2o1` (centres undefined), the GI50 is inactive: > 100 µM. With `COC(=O)CNC(=O)c1cc(C)cc2c1Oc1c(cc(C)cc1C(=O)NCC(=O)OC)S2` the figure was inactive: 31.4 µM; with `O=C(N/N=C(\c1ccccc1)c1ccccn1)NC1CCCCC1`, inactive: 31.2 µM; with `Cc1cc(N(CCC#N)CCC#N)ccc1/C=C1/CN(N2C(=O)/C(=C/c3ccc(N(CCC#N)CCC#N)cc3C)N=C2c2ccccc2)C(c2ccccc2)=N1`, inactive: > 100 µM. With `CC(C)(C)OC(=O)CN1CCN(CC(=O)N2CCN(C(=O)OCc3ccccc3)CC2)CCN(CC(=O)OC(C)(C)C)CCN(CC(=O)N2CCN(C(=O)OCc3ccccc3)CC2)CC1` the figure was inactive: 14.9 µM; with `CN1C(=O)C23CCCC2CC1(c1ccccc1)S3` (centres undefined), inactive: > 100 µM. For the molecule `CC(=O)O[C@H]1[C@H](OC(=O)CC(C)(O)CC(=O)O)C[C@]2(C)C3=C(CCC2C1(C)C)[C@]1(C)CC[C@H]([C@H]2CC[C@H](C(C)(C)O)OC2O)[C@@]1(C)[C@@H](O)C3` (some centres undefined), the GI50 is inactive: 19 µM.

On to `COc1cccc(C2C3=C(COC3=O)Oc3cc4c(cc32)OCO4)c1` (centres undefined), for which the GI50 was active: 0.106 µM.

Regarding `COc1ccc(-c2nc(N)c(C#N)c3c2CCS(=O)(=O)c2ccc(C)cc2-3)cc1OC`, the GI50 was inactive: 39.2 µM. Under `COC(=O)C1(Cc2ccc3c(c2)CCC3)Cc2ccccc2C1` stands inactive: 58.3 µM; under `CSc1nc2nccnc2c(=O)[nH]1`, inactive: 38.2 µM; under `O=C1C=CC2(O[C@H](C3CCCCC3)[C@@H](C3CCCCC3)O2)C(SC(=O)c2ccccc2)C1` (some centres undefined), inactive: 8.79 µM. With `COC(=O)C(C(=O)c1ccccc1)C(C(=O)C(=O)Nc1ccc(OC)cc1OC)C(=O)C(=O)c1ccc(C)cc1` (centres undefined), the GI50 is inactive: > 100 µM. With `O=c1c2ccccc2c(=O)c2c1c1[nH]c3ccccc3c1c1c(=O)c3ccccc3c(=O)c21` the figure was inactive: > 100 µM; with `O=c1cccccc1NCCCCCCNc1cccccc1=O`, inactive: > 100 µM; with `COc1cc(/C=C/C(=O)c2ccc(O)c(OC)c2)ccc1O`, inactive: 11.8 µM. Under `COc1ccc([C@H]2CC(=O)C[C@H](c3ccc(OC)cc3OC)C23C(=O)c2ccccc2C3=O)c(OC)c1` stands inactive: > 100 µM.

On to `Cc1nc2ccc(Br)cc2c(=O)n1-c1ccc(N)cc1`, for which the GI50 is inactive: > 100 µM. With `CCCC[C@@H](C)/C=C1\CN2CCC[C@H]2[C@@](C)(O)[C@@H]1O` the figure was inactive: > 100 µM. With `CC1CN(c2cc3c(cc2F)c(=O)c(C(=O)O)cn3-c2ccc(F)cn2)CC(C)N1` (centres undefined) the figure was inactive: > 100 µM. In the case of `COc1cc2nc(-c3cccs3)[nH]c(=O)c2cc1OC`, the GI50 is inactive: > 100 µM. For `CCCC/C(C)=N/NC(N)=S`, the GI50 is inactive: > 100 µM.

On to `O=C(O)CCSC(=O)Nc1ccc([N+](=O)[O-])cc1`, for which the GI50 is inactive: > 100 µM.

Consider `OCn1nc2c(C3OCCO3)cc3ccccc3n2c1=S`, for which the GI50 is inactive: > 100 µM. Consider `C=C(C)CC1(O[Si](C)(C)C)C(=O)C(OCC)=C1OCC` (centres undefined), for which the GI50 was inactive: > 100 µM. Under `C=C1C[C@@H]2CC[C@@]34CC5O[C@H]6C(O[C@H]7CC[C@H](CC(=O)O[C@@H]8[C@@H](C)[C@@H]9O[C@@H]%10C[C@]%11(C[C@@H]%12O[C@]%13(C[C@H](C)[C@@H]%14O[C@@H]%15CC(C(COC(C)=O)OC(C)=O)O[C@@H]%15C[C@@H]%14O%13)C[C@H](C)[C@@H]%12O%11)O[C@@H]%10C[C@@H]9O[C@H]8CC8O[C@@H](CC[C@@H]1O2)C[C@@H](C)C8(O)CO)O[C@@H]7[C@@H]6O3)[C@H]5O4` (some centres undefined) stands active: 0.46 µM; under `O=C1CCCC/C1=C\c1ccc([N+](=O)[O-])cc1`, inactive: 34 µM. Under `Nc1ccn([C@@H]2C=C(CO)[C@@H](O)[C@H]2O)c(=O)n1` stands active: 0.377 µM. Under `O=S(=O)(N/C(=N\O)Nc1ccc(Cl)cc1)c1cc2ccccc2s1` stands inactive: 16.8 µM.

For the origin of these results see ChEMBL document CHEMBL1201862, “PubChem BioAssay data set” (2004).
